About 620 (0.23%) of roughly 270,000 compounds were called active. Calls come from the whole dose curve; as a rule, active = well fitted inhibition curve with a large enough effect in the polarisation, with a control signal flat (not every such curve was filed as active); inconclusive = small, poorly fitted or top-dose-only effect, or effect the other way, or a change in a side signal; inactive = no such curve, though single readings can be large or run the other way; the % refers to the polarisation. Inconclusive means that the source gave no clear call. A potency beside an inconclusive call is a rough fit, not a confirmed value. “Side channel” marks fits to a control or component signal instead of the main read-out.
Biological target: Menin (Homo sapiens) (UniProt O00255)
Experiment: qHTS Assay for Inhibitors Targeting the Menin-MLL Interaction in MLL Related Leukemias: Competition With Texas Red Labeled MLL-derived Mutant Peptide
Details: fluorescence polarization; series mostly up to 61.6 µM
Potency is the fitted concentration of half-maximal effect; tags give direction and shape of the fitted curve or compound fluorescence and quenching.

UniProt O00255, sequence (O00255 whole entry, looked up): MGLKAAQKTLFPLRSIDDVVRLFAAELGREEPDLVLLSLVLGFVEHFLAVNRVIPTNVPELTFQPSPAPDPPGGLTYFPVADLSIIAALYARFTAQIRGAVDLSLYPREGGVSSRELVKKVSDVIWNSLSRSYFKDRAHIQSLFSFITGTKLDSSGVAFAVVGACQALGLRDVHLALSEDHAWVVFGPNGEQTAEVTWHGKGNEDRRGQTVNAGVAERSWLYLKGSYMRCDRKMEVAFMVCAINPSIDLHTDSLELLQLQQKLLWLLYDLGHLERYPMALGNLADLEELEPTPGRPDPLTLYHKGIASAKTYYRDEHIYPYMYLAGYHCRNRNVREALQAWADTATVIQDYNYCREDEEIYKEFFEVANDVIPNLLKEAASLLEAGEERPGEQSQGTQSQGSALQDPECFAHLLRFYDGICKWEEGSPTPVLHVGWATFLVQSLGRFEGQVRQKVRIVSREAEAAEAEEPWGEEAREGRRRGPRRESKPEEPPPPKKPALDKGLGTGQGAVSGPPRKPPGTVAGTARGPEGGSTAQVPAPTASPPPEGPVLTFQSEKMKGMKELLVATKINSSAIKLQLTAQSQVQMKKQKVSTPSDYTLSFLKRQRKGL

Potency, inconclusive:
CCC(C)NC(=O)C1c2cc(OC)c(OC)cc2C(=O)N(C)C1c1cccs1 (stereo not given) 39.8 µM [inhibitor, single point]
O=C(Nc1nc(-c2cccc3ccccc23)cs1)c1cnccn1 39.8 µM [quencher, side channel, single point]
CNCCCC1c2ccccc2C=Cc2ccccc21 28.2 µM [fluorescent, side channel, partial curve]
CCCNC(=O)CCn1nc(-c2ccccc2)c2ccccc2c1=O 31.6 µM [fluorescent, side channel, partial curve]
Cc1cccc(OCc2n(CC(=O)OC3CC(C)CCC3C(C)C)c3ccccc3[n+]2C)c1 (stereo not given) 2.82 µM [fluorescent, side channel, full curve]
O=C1CC(c2ccc3c(c2)OCCO3)Oc2ccc([N+](=O)[O-])cc21 (stereo not given) 28.2 µM [quencher, side channel, single point]
O=C(N/N=C/c1c[nH]c2ccccc12)c1cc(-c2ccccc2)n[nH]1 14.1 µM [quencher, side channel, partial curve]
CCOC(=O)c1ccc(NC(=O)Nc2ccc3c4c(cccc24)C(=O)N3CC)cc1 7.94 µM [quencher, side channel, full curve]
Clc1ccc(-c2cc(COc3ccccc3)on2)cc1 35.5 µM [inhibitor, single point]
Cc1cc(C(=O)Cn2nc(C(=O)O)c3ccccc3c2=O)c(C)n1C1CC1 0.794 µM [inhibitor, partial curve, poor fit]
O=C1Cc2cc(S(=O)(=O)Nc3cccc([N+](=O)[O-])c3)cc3c2N1CCC3 25.1 µM [quencher, side channel, single point]
CCOC(=O)Cc1cc(=O)n(-c2nc3ccccc3s2)[nH]1 15.8 µM [quencher, side channel, partial curve]
CCOc1ccc(NC(=O)c2ccc3c(c2)CCN3S(C)(=O)=O)cc1 25.1 µM [fluorescent, side channel, single point]
Cc1c(CC(=O)O)c(=O)oc2cc(OCc3ccc(F)cc3Cl)ccc12 2.82 µM [inhibitor, full curve, poor fit]
COc1ccc(CNc2ccnc(-c3ccccc3CN(C)C)n2)c(OC)c1 0.708 µM [inhibitor, full curve, poor fit]
